B1: LINE1-mini (parent)
chain: GGCAGAGCUCAACACAGCGUGGCAAAGUGGCUGUGGCUAGACUGCC

Read counts are not given, so values of variants with three or more changes are uncertain.

The variants in the data set derive from B1. Nature of the data set: self-cleavage, relative activity (ratio to wild type); higher = more cleavage; in vitro, sequencing; the parent is a self-cleaving ribozyme.
On to GGCAGAGCUCAAAACAGCGUAGCAAAGUGGCUGUGGCUAGAUUGCC [C13A G21A C42U], for which the self-cleavage is 1.18.

With GGCAGAGCUCAAAACAGUGUGGCACAGUGGCUGUGGCUAGACUGCC [C13A C18U A25C], the self-cleavage came to 0.06. For the variant GGCAGAGCUCAAAACAGCGUGGCAAAGUGCCUGUGGCUAGACUGAC [C13A G30C C45A], the self-cleavage is 0.07. Then GGCAGAGCUCAAAACAGCGUCGCAAAGUGGCUGUGACUAGACCGCA [C13A G21C G36A U43C C46A], with 0.03; and GGCAGAGCUCAAAACAGCGUGGCAAAGUGGGGGUGGCUAGACUGCC [C13A C31G U32G], with 0.01; and GGCAGAGCUCAAAACAUCGUGGCAAAGUGGCUGUGGCUAGACCGCC [C13A G17U U43C], with 0.11. Next, GGCAGAGCUCAAAUCGGCGUGGCAAAGUGGCUGUGGCUAGACUGCC [C13A A14U A16G]: 0.03. As for GGCAGAGCUCAAAACUGCGUGGCCAAGUGGCUGAGGAUAGACUGCC [C13A A16U A24C U34A C37A], the self-cleavage was 0.02. In the case of GGCAGAGCUCAAAACAUCGUUGCAAAGUGUCUGUGGCUAGACUGCC [C13A G17U G21U G30U], the self-cleavage came out at 0.04. Then GGCAGAGCUCAAAACAGCGUGGCAAAGUUGCUGUGGCUAGACUGUC [C13A G29U C45U], with 0.1; and GGCAGAGCUCAAAACAGCGUGGCACAGUGGCUGAGGCUAGACUACC [C13A A25C U34A G44A], with 0.06. For the variant GGCAGAGCUCAAAACAGUGUGUCAAAGUGGGUGUGGCUAGACUGCC [C13A C18U G22U C31G], the self-cleavage turned out to be 0.06.

As for GGCAGAGCUCAAAACAGCGUGGCAAAGCGGCUGCGGCUAUACUGCC [C13A U28C U34C G40U], the self-cleavage stood at 0.06. In the case of GGCAGAGCUCAAAACAGCGUGGCAAAGUAGCUGUGGAUAGACUGCC [C13A G29A C37A], the self-cleavage was determined as 0.02.

As for GGCAGAGCUCAAAACAGCUUGCCACAGUGGCUGUGGCAAGACUGCC [C13A G19U G22C A25C U38A], the self-cleavage amounted to 0.01. Next, GGCAGAGCUCAAAACAGCGUGGCAAAGUAGCUGAGGCUUGACUGCC [C13A G29A U34A A39U]: 0.09; GGCAGAGCUCAAAACAGCGCGGCAAAGUGGCUGUGGCUAGACUUCU [C13A U20C G44U C46U]: 0.01; GGCAGAGCUCAAAACAGCAUGGAAAAUUGGCUGAGGCUACACUGCC [C13A G19A C23A G27U U34A G40C]: 0.01. Next, GGCAGAGCUCAAAAAAGCGUGGCCAAGUGGCUGUGGCUAGACUGCC [C13A C15A A24C]: 0.03.

On to GGCAGAGCUCAAAACAGCUUGGCAAAGUGGCUGUGGCUAGACUGCA [C13A G19U C46A], for which the self-cleavage came to 0.02. Then GGCAGAGCUCAAAACAGCGUGGCAAAGUGGCAGUGGCUAGACUAUC [C13A U32A G44A C45U], with 0.03; and GGCAGAGCUCAAAACAGCGUGGUAAAGUGGCUGUGGCUAAACUGCC [C13A C23U G40A], with 0.12. Next, GGCAGAGCUCAAAACAGCGUGGCAUAGUGGCUGUGGCCAGACUGCC [C13A A25U U38C]: 0.03; GGCAGAGCUCAAAACAGCGUGACAAAGUGCCUGUGGCUAGAUUGCC [C13A G22A G30C C42U]: 0.11; GGCAGAGCUCAAAACAGCGUGUUAAAGUGGCUGUGGCUAUACUGCC [C13A G22U C23U G40U]: 0.12. Then GGCAGAGCUCAAAACAGCGUGGCAAAGUGGUUGUGGCUAGAAUGCC [C13A C31U C42A], with 0.03; and GGCAGAGCUCAAAGCAGCUUGGCAAAGGGUCUGUGGAUAGACUGAC [C13A A14G G19U U28G G30U C37A C45A], with 0.01; and GGCAGAGCUCAAAACAGCGUGGCAGCGUGGCUGUGGCUAGACUGCG [C13A A25G A26C C46G], with 0.02.

For the variant GGCAGAGCUCAAAACAGCGAGGCAAAGUGGCUGUGGCCUGACUGCC [C13A U20A U38C A39U], the self-cleavage stood at 0.04. Then GGCAGAGCUCAAAACAGCGUGGCAAAGUGGCUGUGGUUAUACUGCC [C13A C37U G40U], with 0.18; and GGCAGAGCUCAAAACAGCGUGGCAAUGGGGCUGUGGCUAGGCAGCC [C13A A26U U28G A41G U43A], with 0.11. For GGCAGAGCUCAAAACAGCGUUGCAAAGUGAUUUUGGCUAGACGGCC [C13A G21U G30A C31U G33U U43G], the self-cleavage came out at 1.5. Then GGCAGAGCUCAAAACAGCGUGGCAAUGUGGCUGUGGCUAGAGUGCC [C13A A26U C42G], with 0.31; and GGCAGAGCUCAAAACAGCGUCGCAAAGUGUCUGUGGCUAGACUGCC [C13A G21C G30U], with 0.07; and GGCAGAGCUCAAAACAGCGUGGCAAUGUGGCUGUUGCUAGACUGCC [C13A A26U G35U], with 1.29. Then GGCAGAGCUCAAAACAGUGUGGAAAAGUCGCUGUGGCUAAACUGCC [C13A C18U C23A G29C G40A], with 0.02; and GGCAGAGCUCAAAACAGCGUGGCAAAGUGGCGGUGCCUAGAAUGCC [C13A U32G G36C C42A], with 0.02. Then GGCAGAGCUCAAAACGGCGUGGCAAAGUGGCUGGGGCUAGACUGCC [C13A A16G U34G], with 0.01; and GGCAGAGCUCAAAACACCGUGGCAAAGUUGGUGUGCCUAGACUGUC [C13A G17C G29U C31G G36C C45U], with 0.14. Consider GGCAGAGCUCAAAACAGCGUGGCAUAGUGGCUUUGGCUAGACUGAC [C13A A25U G33U C45A], for which the self-cleavage was 0.02. Turning to GGCAGAGCUCAAAACAGCGUGGCAAAGUGGCUGGGGCUAGUCUGCC [C13A U34G A41U], the self-cleavage was determined as 0.29. For GGCAGAGCUCAAAACAGCGUGGCAACGGGGCUGUGGCUAGACUGCC [C13A A26C U28G], the self-cleavage is 0.07. Next, GGCAGAGCUCAAAACACCGUGGCAAAGUGGCUGCGUCUCGACUGCC [C13A G17C U34C G36U A39C]: 0; GGCAGAGCUCAAAACAGCGUAGCAAAGUGGCUGUAGCUAGGCUGCC [C13A G21A G35A A41G]: 0.04. Next, GGCAGAGCUCAAAACACCGUGGCAAAAUGGCUGAGGCUAGACUGCC [C13A G17C G27A U34A]: 0.01; GGCAGAGCUCAAAACAGCGUGGCAAACUGGCUGUGACUAGACUGCC [C13A G27C G36A]: 0.25; GGCAGAGCUCAAAACAGCGUCGCAAAGUGGCUGUGGCUAAAUUGCC [C13A G21C G40A C42U]: 0.04. Next, GGCAGAGCUCAAAACAGCGAGGCAAAGUGACUGUGGCUAGACUGCC [C13A U20A G30A]: 0.07; GGCAGAGCUCAAAACAGCGUGGCAAAGUGGCGCUGGGUAGACUGCC [C13A U32G G33C C37G]: 0.01; GGCAGAGCUCAAAUCAGCGUGGCAAAGUGGCUGUGGGUAGACUGCC [C13A A14U C37G]: 0.01. In the case of GGCAGAGCUCAAAACAGCGUGUGAAAGUGGCUGUGGCUAGACUGCC [C13A G22U C23G], the self-cleavage was 0.42. Then GGCAGAGCUCAAAAUAGCGUGGCAAACUGGUUUUGGCUAGCCUGUC [C13A C15U G27C C31U G33U A41C C45U], with 0.03; and GGCAGAGCUCAAAACAGCGUGGCAAAGUGGCUGUGGCUUGGCUGCC [C13A A39U A41G], with 0.07; and GGCAGAGCUCAAAGCACCGUGGCAAAGUGGCUGUGGCCAGACUGCC [C13A A14G G17C U38C], with 0.08. Next, GGCAGAGCUCAAAACAGCCUGGCAAAGUGGCUGUGGCUAGACGGUC [C13A G19C U43G C45U]: 0.04; GGCAGAGCUCAAAACAGCGUGUCAAAGUGGCUGUGGCUAGACCGCC [C13A G22U U43C]: 0.12.

(Values after the RNAGym collection of RNA variant scans (doi:10.7554/elife.90254).)
